Reference: the supplement of paper PMC3334620
Whole data set: some 33,000 sequences, median “E-score (-0.5 to 0.5)” near -0.053, cut for the highest 2% near 0.37. The list shows a part of the results.

What follows are sequences tested against Hap1 (UniProt P0CE41) (assay: PBM E-score (8-mer binding enrichment) (E-score (-0.5 to 0.5)); higher = stronger / more preferred TF binding; most listed sequences are background and not binding sites). Conditions: protein concentration: 200 nM; construct: GST-DNA-binding domain.
UniProt P0CE41, sequence (P0CE41 whole entry, the tested form may be a part): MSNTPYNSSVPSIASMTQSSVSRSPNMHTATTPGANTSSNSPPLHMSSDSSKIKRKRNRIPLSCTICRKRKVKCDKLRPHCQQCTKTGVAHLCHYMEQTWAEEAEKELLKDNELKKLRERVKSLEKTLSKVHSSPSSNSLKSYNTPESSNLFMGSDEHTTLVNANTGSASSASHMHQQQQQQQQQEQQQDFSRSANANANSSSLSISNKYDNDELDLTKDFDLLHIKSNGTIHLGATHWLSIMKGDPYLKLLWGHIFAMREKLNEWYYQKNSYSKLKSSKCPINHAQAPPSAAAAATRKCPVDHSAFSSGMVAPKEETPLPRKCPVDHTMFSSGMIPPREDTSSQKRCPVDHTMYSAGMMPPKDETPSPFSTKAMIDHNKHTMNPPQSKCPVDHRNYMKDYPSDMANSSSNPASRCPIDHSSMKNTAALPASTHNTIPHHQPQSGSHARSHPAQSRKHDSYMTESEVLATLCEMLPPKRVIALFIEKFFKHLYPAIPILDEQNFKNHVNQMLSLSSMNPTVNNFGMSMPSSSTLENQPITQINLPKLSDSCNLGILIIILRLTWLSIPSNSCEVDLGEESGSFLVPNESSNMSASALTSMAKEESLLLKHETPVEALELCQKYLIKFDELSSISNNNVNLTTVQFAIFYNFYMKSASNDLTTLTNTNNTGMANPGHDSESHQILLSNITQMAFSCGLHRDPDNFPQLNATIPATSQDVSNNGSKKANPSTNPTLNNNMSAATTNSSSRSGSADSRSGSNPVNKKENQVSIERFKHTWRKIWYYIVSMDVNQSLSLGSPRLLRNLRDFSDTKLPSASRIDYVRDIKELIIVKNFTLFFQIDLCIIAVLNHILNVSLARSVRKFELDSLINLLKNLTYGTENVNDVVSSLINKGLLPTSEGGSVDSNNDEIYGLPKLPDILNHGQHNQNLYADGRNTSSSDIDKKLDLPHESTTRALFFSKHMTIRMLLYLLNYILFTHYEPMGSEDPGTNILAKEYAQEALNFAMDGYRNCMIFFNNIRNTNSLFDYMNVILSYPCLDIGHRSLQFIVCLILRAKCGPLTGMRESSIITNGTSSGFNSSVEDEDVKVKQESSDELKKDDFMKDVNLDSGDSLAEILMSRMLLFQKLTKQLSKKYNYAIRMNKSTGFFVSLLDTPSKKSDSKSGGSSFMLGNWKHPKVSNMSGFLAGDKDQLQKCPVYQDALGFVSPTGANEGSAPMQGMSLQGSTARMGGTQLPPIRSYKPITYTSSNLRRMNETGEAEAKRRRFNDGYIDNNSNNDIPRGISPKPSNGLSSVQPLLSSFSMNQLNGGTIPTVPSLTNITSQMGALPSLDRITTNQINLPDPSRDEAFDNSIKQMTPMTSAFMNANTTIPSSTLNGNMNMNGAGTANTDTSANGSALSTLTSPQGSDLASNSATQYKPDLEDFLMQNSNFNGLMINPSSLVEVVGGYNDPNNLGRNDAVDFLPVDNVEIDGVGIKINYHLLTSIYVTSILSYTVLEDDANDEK
How it was run: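 GST-tagged yeast TFs (full-length or DNA-binding domain) were made by PURExpress in vitro transcription/translation and applied at about 100-200 nM to universal all-10-mer Agilent arrays. The arrays were made double-stranded by primer extension, on fresh or once-stripped slides. Bound protein was detected with fluorescent anti-GST, and scans were normalised with masliner. Each ungapped eight-base word, pooled with its reverse complement, received an E-score (modified Wilcoxon-Mann-Whitney statistic) from the Universal PBM Analysis Suite.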

Sequence	PBM E-score
GGGTAATA	-0.00588
CCCCTACC	-0.211
ACAAAAAG	-0.0481
ACAAGCAT	-0.0294
GAAGTAGA	-0.0934
ATGCTGAC	-0.253
CGATGCTC	0.152
TAAACGGA	0.236
TCACTGCA	-0.174
AGCCACAG	-0.189
CGTTATGC	-0.0736
CTTACTGA	-0.137
ATCTACAC	-0.128
CCCGATAG	0.414
ACTTTGTA	-0.211
CGGCCTAC	0.162
CAATTCCA	-0.0901
CAGAAAGC	-0.262
AAGTCCGT	0.417
GGTTTAAA	0.0781
ACGTCGAA	-0.179
GTGCACAA	-0.0721
ATTGTCTG	-0.109
ATGGTCGG	0.192
AGTACCGC	0.187

Sequence	PBM E-score
CTGCACTA	0.0173
AGGCATAA	-0.0303
CAATATAG	-0.0976
CTGAATTA	0.00258
CTGCTAGC	-0.32
AAATTACT	-0.0232
AGCGCAAT	-0.0796
ACTAGGAC	-0.091
AGATCTTG	-0.175
AACTCTGA	-0.00378
AACCAGAA	-0.269
GAAAGTGA	-0.0915
CCGACCAC	0.194
AAATGGTC	0.0716
TACCGACA	0.209
ATCTCAGC	-0.0878
AAAGCCAT	0.00306
CGCATTCC	0.0252
CACGGCAA	0.0851
CACAGGGC	-0.144
AACATCAG	-0.152
TACGGAAA	0.316
CGTGCCCA	-0.0704
ATCGCAGA	-0.219
ACTAAGCG	-0.0531

Sequence	PBM E-score
GTGAGTGA	-0.17
ACCCTAAC	0.051
ATCGTTTG	0.0269
AATGATAG	0.176
GCCAAAGC	-0.066
GACTACAC	-0.229
CTAACTTA	0.0135
ATAGTGTG	-0.157
GAACCAGC	-0.0256
GCACCTGC	-0.151
CACGGATC	0.267
ACCTAAAT	0.105
GGGTCTAC	-0.0108
GGTCAGGA	0.0614
GGATAGCA	-0.103
CTTCCTAC	-0.355
CTGTTAGA	-0.174
TAAAACCA	-0.13
ACGCGCTA	-0.00788
ATCTGCGC	0.00257
GCATGCAA	0.0148
CAGGCAAG	-0.183
CTGCAGCA	-0.19
CGCCGCCC	0.138
CTTCAGTA	-0.111

Sequence	PBM E-score
AAGGTAGG	-0.0701
CGATCATA	-0.0295
GAGGAAAA	-0.0281
AAACACTG	-0.137
AACGGTCT	0.0385
GGACGCCC	0.138
CAGGTCAA	-0.112
TGGTGAAA	-0.122
CCAGGTCG	-0.233
GCAAGACA	-0.0165
CTGTCGAC	-0.14
GTTAATAA	0.142
CCACGGCG	0.16
TGGCCCAA	-0.141
ACGAGTGG	-0.0351
AGTGATTG	-0.0722
CCGGTGGA	0.39
ATTCTAGA	-0.17
ACGTCGTA	-0.187
AGCCCATC	-0.0849
ACGACACT	-0.182
ACAGTCGC	-0.234
CCACTCTC	0.0582
CCGACCAA	0.204
GGGCAGCA	-0.182

Sequence	PBM E-score
AGGCTCGA	-0.164
ACGTCAGC	-0.0646
AGCCAATC	-0.00265
GCTATGAC	0.011
CCGTCACG	0.209
GAGTGGAA	-0.0273
AGGGCCAA	-0.195
CGTAGTAA	-0.0685
AATCCAGG	-0.13
AATGCGAT	0.0235
ACAGACGA	-0.101
TCCGAGCA	0.402
CCAAAGGC	-0.245
ACCTAGCA	-0.158
AAGATATG	0.00745
GAAGGCAA	-0.137
ACGGTTTC	0.156
GCACATAC	-0.147
ACGTCTCA	-0.113
CACGTGAG	-0.173
GCCCGATA	0.423
CCGCAAAG	0.201
CTAGCTCA	-0.308
AGTATGCC	0.0174
CATGGATC	0.0587

Sequence	PBM E-score
AGGAGCAA	-0.0675
CTGGTCGA	-0.0394
GATAGTTA	0.0916
AATTCGAA	-0.249
GGTGCCAA	-0.0723
ACACTTGG	-0.0889
ATCGGCTC	0.311
ACTTCGAG	-0.0766
GACCTTGA	-0.296
AGACGTTA	-0.107
AGGTAGGG	-0.218
AAACATCA	-0.189
AGAATTCC	0.031
TGTCAGAA	-0.373
GCTACAAA	-0.0565
ACGTTGAA	-0.0505
ATGCAACC	-0.0334
CACTATTC	0.0152
CATGCACG	-0.156
AAGGATGA	-0.247
AAGTTCGG	0.306
AAGAGATG	-0.191
CTGGACCA	-0.164
CCCGCCTA	0.136
GGATTAAC	0.195

Sequence	PBM E-score
AAGCCCGA	0.333
AATAAGAC	-0.3
CGTCTAGC	-0.148
CGAGAATC	0.0475
ATCGACCA	-0.251
ACACAATC	-0.0512
CAGGGATC	-0.199
GACAAATA	0.0891
AGGACTCG	-0.13
TGATTGCA	-0.0557
ACCCGCAC	0.23
CAGACGGG	-0.0349
AGGATTGC	-0.126
AAATCCCG	0.379
CGCCGCTC	0.186
ATGATATC	-0.0808
ATGAGCCA	-0.206
CCCCACGC	-0.189
TCACTAGA	-0.00688
CTTAGTCC	0.168
TAGCCGAA	0.314
TACCGCTA	0.159
CGTGTGGA	-0.0408
AGACACTC	-0.185
AGAACCGC	0.0105

Sequence	PBM E-score
CAGTAATG	-0.223
ATACTCTA	-0.0913
GTCGCCGA	0.246
GCAGTAAC	-0.0514
AACCCGTC	0.093
ACTTCAAC	-0.0481
GAGACACA	-0.0116
AAAAACTA	-0.0564
ATTAGATG	-0.0455
CATTCAAC	-0.283
TAAGGGAA	-0.286
CATCCGGC	0.342
TTAAAGAA	-0.0249
CGTTATAC	0.023
CCTCGGCC	0.346
ACACCCAC	-0.0615
CAAATAAG	0.0685
AGTAACTA	-0.0567
AATTGAGG	0.00911
AAGATCCT	-0.0836
GCCCAAGA	-0.22
ATATATCA	0.0242
GTGCATAA	-0.00941
GTGGTCCA	-0.181
ACCAAACT	-0.13

Sequence	PBM E-score
ACCATGAA	0.00818
AGTTGGCC	-0.155
GCTTCCAC	0.0486
ATGCCAGA	-0.2
CGGGCGCC	0.125
AGAGGGGC	-0.234
GCTGTAAC	0.061
AATCACCC	0.137
AAAGATAC	-0.0584
ACCGCCTC	0.0176
AAGGCAAC	-0.111
CAGATTTA	0.0647
ACGGGACA	0.203
AAGGTCGC	0.126
ACAGATCT	-0.169
CTATTCAG	-0.306
AGCTCCTG	-0.134
AATAAAGG	-0.212
TGAGTTAA	-0.188
CCCAAGAG	-0.178
AGGGCACC	-0.12
AGAAGCCG	0.275
GTGGTGTA	-0.176
AGCGACTC	-0.124
GCTAGTCA	-0.209

Sequence	PBM E-score
CGCAGAGA	-0.263
GGTGAAAA	0.22
AATAAATA	0.212
CACCCGAG	0.268
ACTTGGCT	-0.208
AGCTATTC	-0.0945
GGCGCTCA	0.00056
CTAACAGA	-0.101
GATCTCCC	-0.0839
ACAACAAT	-0.237
ATGCAGTC	-0.2
AAGTCGTA	-0.342
ATATATCG	0.34
GGGGGCAA	-0.0427
ACTCCCTG	-0.23
CAGACCTC	-0.0611
CAGGGCAA	-0.195
AGTCAACA	-0.232
TACGGCGA	0.134
GTACAATA	-0.205
GGCGGCGA	0.213
AGAGCATC	-0.0993
CCGAGTAC	0.358
CCTATAAC	-0.188
CAAAATAG	-0.181

Sequence	PBM E-score
AGCATGGA	-0.242
AGCGACAG	0.118
CATCAAGA	-0.143
AACGTAAC	-0.105
AAAAGTCT	-0.114
TGAATACA	-0.0875
ACAACCCA	-0.0643
AGTGCATC	-0.192
AAGGGAGG	-0.0176
AAGGCGGA	0.123
CGTCGACG	0.229
GTAGTTGA	-0.192
CCAGGATA	-0.0904
CATGCGGA	0.236
ACACACAG	-0.136
AGTGCACC	0.0417
ACGTTATA	-0.113
ATGATGAG	-0.233
CAGCACGC	-0.111
CGCACCCA	-0.127
GTCTACTA	-0.154
ACAACGGC	0.183
CGCTTCAG	-0.0473
GCACCTCA	-0.088
CATCTTAA	-0.119

Sequence	PBM E-score
CGAGGTAG	0.0618
AACCTGAG	-0.167
CTCAACGC	-0.217
AAATGACG	0.0199
GCAGGCCA	-0.118
GAATATGA	-0.129
AGGGTCTA	0.00504
CCCAAACG	-0.0556
GAAAGAGC	-0.138
ATGCACGG	0.103
CCCACGGC	0.0303
ATCCCACA	-0.172
ACGGGGTC	0.0962
ATTCAGCC	-0.0588
ACGGCGCA	0.112
CGAAAGAC	0.142
GGTGTAAC	0.147
CATTAGTC	0.0471
ACCGTTGG	-0.0793
ACATGAGG	-0.274
CTTTTACA	-0.0446
ATCAGAAG	-0.184
AGGCAGCG	-0.11
CACCTCAC	-0.0522
CTTGTATC	-0.0114

Sequence	PBM E-score
GCCGGACC	0.341
GATGTCCA	-0.03
TGAGTGAA	-0.193
GTAGGGCA	-0.172
ATCCCTTG	-0.16
CAAGGAAG	-0.132
GAGATACC	0.227
AAATCGTG	0.00265
TACCGCGA	0.173
GTGAAAGA	-0.014
AGTAGTTG	-0.0614
CTGACCTC	-0.174
AACCTCCC	0.0424
CGGTGATA	0.428
GGAATTTA	0.297
AAGCAACT	-0.0805
CTATCGCC	0.102
CAGATTCC	0.161
CCGTTAGC	0.218
CGCTAATC	0.0862
AAAAAACG	0.0042
ATACAATA	0.195
ACCCTCGC	-0.00236
CATGAGAG	-0.154
AGGCGTTG	-0.0743

Sequence	PBM E-score
ACACCTCC	0.0128
GTGGATCA	-0.21
ACCAATCT	-0.0601
CTGATGAC	-0.156
GCGGATGA	0.256
ACCATTCC	0.0406
ACGGACAG	0.113
AGCAAGGG	-0.102
GAGCCGGA	0.379
AAAGAACG	-0.105
CTTTGTAA	-0.186
AACGTACC	-0.0889
AGTAACCG	0.106
CGTTGGAA	-0.00474
AACATTGC	-0.0896
CCTCCCCA	-0.168
AACTCAGC	0.00165
CGTAGGGA	-0.133
CAATGAAA	-0.287
